The experiment concerns the target T1, human VEGF165 (human, UniProt P15692-4 27-191).
T1 sequence (looked up): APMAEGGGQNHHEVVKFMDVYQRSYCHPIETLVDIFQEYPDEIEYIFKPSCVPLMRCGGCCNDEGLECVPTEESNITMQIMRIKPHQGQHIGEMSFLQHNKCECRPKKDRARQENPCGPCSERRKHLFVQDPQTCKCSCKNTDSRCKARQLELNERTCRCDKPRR
Description: ELISA of mouse sera on VEGF165-coated plates (pharmacokinetic detection). Background: ELISA stands for enzyme-linked immunosorbent assay.

B1: Flt1D2.VEGFR3D3.FcΔC1(a) (Fc fusion)
chain: GRPFVEMYSEIPEIIHMTEGRELVIPCRVTSPNITVTLKKFPLDTLIPDGKRIIWDSRKGFIISNATYKEIGLLTCEATVNGHLYKTNYLTHRQTNTIIDIQLLPRKSLELLVGEKLVLNCTVWAEFNSGVTFDWDYPGKQAERGKWVPERRSQQTHTELSSILTIHNVSQHDLGSYVCKANNGIQRFRESTEVIVHENGPG[omitted - human IgG1 Fc]
notes: no signal peptide limits are stated; It was purified by the same methods as Flt1D2.Flk1D3.FcΔC1(a), whose dimer fraction was pooled; also called R1R3
B1: the binding result was “binds”.

These data come from US20080220004A1 (published 2008).
